# In publication PMC4336329 (PLoS ONE, 2015):
# In all, about 310,000 compounds went through this assay and about 2,200 (0.71%) showed an effect of 50% or more. The effect is printed as a negative number. This is one part of the list.
# Molecular target: human ether-à-go-go-related gene (hERG) potassium channel (human, UniProt Q12809)
# Test: primary screen, population patch clamp on CHO cells stably expressing hERG
# Chain of human ether-à-go-go-related gene (hERG) potassium channel (Q12809 whole entry, looked up): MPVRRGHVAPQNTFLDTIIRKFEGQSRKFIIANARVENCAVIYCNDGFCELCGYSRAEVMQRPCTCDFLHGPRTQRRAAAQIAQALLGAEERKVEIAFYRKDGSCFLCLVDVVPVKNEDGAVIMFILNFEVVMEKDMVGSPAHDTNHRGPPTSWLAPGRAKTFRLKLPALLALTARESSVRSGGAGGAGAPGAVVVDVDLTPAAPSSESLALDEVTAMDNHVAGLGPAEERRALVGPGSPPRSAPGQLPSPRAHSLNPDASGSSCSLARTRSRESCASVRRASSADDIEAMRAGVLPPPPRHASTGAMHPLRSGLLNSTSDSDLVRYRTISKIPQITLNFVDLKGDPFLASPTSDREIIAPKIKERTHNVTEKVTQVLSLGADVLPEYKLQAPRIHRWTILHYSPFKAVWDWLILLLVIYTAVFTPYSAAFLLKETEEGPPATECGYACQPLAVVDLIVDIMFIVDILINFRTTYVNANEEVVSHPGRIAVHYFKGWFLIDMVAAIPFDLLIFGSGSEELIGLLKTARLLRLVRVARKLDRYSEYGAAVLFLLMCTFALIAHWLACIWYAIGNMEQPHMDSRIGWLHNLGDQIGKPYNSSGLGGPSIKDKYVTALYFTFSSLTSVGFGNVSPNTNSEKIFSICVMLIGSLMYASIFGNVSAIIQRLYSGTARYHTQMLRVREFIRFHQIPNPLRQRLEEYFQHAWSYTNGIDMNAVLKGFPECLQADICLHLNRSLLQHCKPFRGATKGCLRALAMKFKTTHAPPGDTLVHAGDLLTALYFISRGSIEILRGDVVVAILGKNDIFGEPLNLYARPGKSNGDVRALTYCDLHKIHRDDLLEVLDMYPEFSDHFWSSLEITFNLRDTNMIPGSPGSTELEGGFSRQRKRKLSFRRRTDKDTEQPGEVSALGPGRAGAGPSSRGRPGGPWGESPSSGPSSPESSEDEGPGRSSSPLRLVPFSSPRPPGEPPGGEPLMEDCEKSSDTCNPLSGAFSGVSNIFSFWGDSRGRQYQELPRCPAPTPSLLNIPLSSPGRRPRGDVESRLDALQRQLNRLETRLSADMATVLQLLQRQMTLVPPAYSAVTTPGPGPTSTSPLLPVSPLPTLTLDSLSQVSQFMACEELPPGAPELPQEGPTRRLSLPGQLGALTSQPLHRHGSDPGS
row,SMILES,"hERG current change (%, negative = inhibition) at 1uM [%]"
1,Cc1cc(C)n2nnnc2n1,14.8
2,CC(C)(C)c1csc(NC(=O)Cn2cnc3ccccc3c2=O)n1,0.854
3,OCC[C@H]1C[C@H](O)[C@@H](O)[C@]2(CCc3ccccc3O2)O1,10.2
4,COc1cccc(-c2nnc(SCC(=O)OC(C)C)n2N)c1,-2.38
5,Cc1ccc(C(=O)N/C(=C\c2sccc2C)C(=O)NCc2ccco2)cc1,11.7
6,O=C(NC(=S)Nc1ccc2oc(=O)ccc2c1)c1ccccc1F,11.2
7,c1ccc(CN2CCN(Cc3c[nH]c4ccccc34)CC2)cc1,15.3
8,COc1ccc(CN2CCC(N3CCC(C(=O)N4CCOCC4)CC3)CC2)c(F)c1,5.73
9,NNC(=O)c1cc2c(s1)-c1cc(Cl)ccc1SC2,10.8
10,COc1ccc(C/C(C)=N\NC(=O)c2c[nH]c3ccccc23)cc1OC,9.41
11,COc1ccc(-n2cnc3cc(C(=O)NC4CCCC4)ccc32)cc1,-3.74
12,Cc1ccc(-n2c(-c3ccc(Cl)cc3Cl)n[nH]c2=S)cc1,16.7
13,Cc1cc(C)cc(NC(=O)Nc2ccc3c(c2)N(C)C(=O)CS3)c1,7.38
14,CCC1CN(C(=O)N2CCC(C(=O)NCCc3ccc(OC)c(OC)c3)CC2)c2ccccc2O1 (stereo not drawn),4.76
15,O=C(O)C(=O)O.c1coc(CNCCc2c[nH]c3ccccc23)c1,10.9
16,C/C(=N\NC(=O)COc1ccc(C(C)(C)C)cc1)c1ccc(-n2ccnc2)cc1,6.49
17,CC(NCc1ccc(S(N)(=O)=O)cc1)C(=O)Nc1cc([N+](=O)[O-])ccc1Cl (stereo not drawn),-6.64
18,CCOC(=O)/C=C1\CN(CCC(C)C)S(=O)(=O)c2ccccc21,6.97
19,CCOC(=O)N1CCN(S(=O)(=O)c2ccc3c4c(cccc24)C(=O)N3)CC1,-2.74
20,[N-]=[N+]=CC(=O)CNC(=O)[C@@H](Cc1ccccc1)N1C(=O)c2ccccc2C1=O,9.72
21,CC1(C)Cc2ccccc2-c2nnc(SCC(=O)N3CCN(c4ccccc4)CC3)n21,-10.9
22,CNC(=O)C12CCC(C)(c3nc4cc(C)c(C)cc4nc31)C2(C)C (stereo not drawn),2.03
23,CCN1CCN(S(=O)(=O)Cc2ccccc2)CC1,13.6

row,SMILES,"hERG current change (%, negative = inhibition) at 1uM [%]"
1,C=C(C)COc1ccc2c(C)c(CCC(=O)N3C[C@H]4C[C@@H](C3)c3cccc(=O)n3C4)c(=O)oc2c1,-15
2,Cc1cc(C)cc(NC(=O)CCCSc2nc3ccccc3[nH]2)c1,7.13
3,O=c1c2ccccc2nc2n1C(CSc1ccc(F)cc1)CN2 (stereo not drawn),8.57
4,COc1cc(OC)cc(-c2nnc(N(C)C(=O)c3ccncc3)s2)c1,1.34
5,Cc1c(-c2ccccc2)sc(N)c1C(=O)N1CCOCC1,-14.6
6,O=C(CN1C(=O)CCOc2ccccc21)Nc1ccc(Cl)c(S(=O)(=O)N2CCOCC2)c1,13.9
7,CCCCNC(=O)c1nn(-c2ccccc2OC)c(=O)c2ccccc12,1.81
8,CCOC(=O)C(=O)Nc1ccccc1C(=O)NCc1ccccc1,-1.34
9,COC(=O)CS(=O)(=O)c1cccc2cccnc12,14.5
10,Cc1ccc(-c2c3c(nc4sc(C(N)=O)c(N)c24)CCCC3)o1,13.9
11,O=C(Cn1nnc(-c2cc(C(F)(F)F)cc(C(F)(F)F)c2)n1)NNC(=S)Nc1ccc(Cl)cc1,10.4
12,COc1ccc(N/N=C(\C#N)C(=N)N2CCCCC2)cc1,6.25
13,COC(=O)c1c(NC(=O)CSc2nnnn2-c2ccccc2)sc2c1CCCC2,-2.11
14,Cc1nccn1-c1c2c(c(C#N)c3nc4ccccc4n13)CCC2,8.89
15,Cc1nc2c(oc3ccc(Cl)cc32)c(=O)[nH]1,10.2
16,Cc1ccc2c(c1)c1c(c(=O)n(-c3ccccc3)c(=O)n1CC(=O)NCC1CCCO1)n2C (stereo not drawn),16.3
17,CCCCNC(=O)CCn1c(=O)c2cccn2c2ccc(F)cc21,7.88
18,O=S(=O)(Nn1cnnc1)c1ccc(F)cc1,22.5
19,CC1(C)CC(=O)C2=C(C1)Nc1ccccc1NC2c1ccc2c(c1)OCO2 (stereo not drawn),10.4
20,COc1ccccc1NS(=O)(=O)c1ccc(/C=C/C(=O)O)cc1,8.03
21,Cc1nc2sc(C(c3ccccc3)N3CCN(CCO)CC3)c(O)n2n1 (stereo not drawn),8.04
22,CC(C)CC(C(=O)Nc1cccc(O)c1)N1C(=O)c2ccccc2C1=O (stereo not drawn),8.56
23,O=C(CSCc1cccc(Br)c1)N=Nc1c(O)[nH]c2ccccc12,3.41

row,SMILES,"hERG current change (%, negative = inhibition) at 1uM [%]"
1,COc1ccc(S(=O)(=O)N2CCC(C(=O)NCCC3=CCCCC3)CC2)cc1C,-26.9
2,O=C1C(=Cc2ccc(Br)o2)C(=O)c2ccccc21,5.75
3,COc1ccccc1NS(=O)(=O)c1cccc(C(=O)N/N=C/c2c(C)nn(-c3ccccc3)c2N2CCCC2)c1,5.93
4,CC(c1ccccc1)C1C(C#N)=C(N)OC2=C1C(=O)CCC2 (stereo not drawn),8.91
5,CSCCCNC(=O)c1ccc(OC2CCN(CCc3ccccc3)CC2)cc1,-18.9
6,COC(=O)c1nn(-c2ccccc2)c(=O)cc1O,9.88
7,CC(C)CNC(=O)c1ccc(Cl)c(Cl)c1,10.7
8,CCc1cccc2c(C(=O)COC(=O)c3c(C)noc3C)c[nH]c12,3.71
9,O=C1N/C(=N\S(=O)(=O)c2ccccc2)S/C1=C\c1cc([N+](=O)[O-])ccc1O,10.7
10,CCOC(=O)NC1CCS(=O)(=O)C1 (stereo not drawn),1.05
11,CC(Cc1ccccc1)[n+]1cc(/N=C(\[O-])Nc2ccccc2)on1 (stereo not drawn),2.94
12,C=CCSc1nnc(NC(=O)CSc2nc3ccccc3o2)s1,14.6
13,CCOC(=O)C1=C(O)C(=O)N(CCCn2ccnc2)C1c1ccc(OC)cc1 (stereo not drawn),1.97
14,COc1ccc(CCNS(=O)(=O)c2ccc3c(c2)CCN3C(=O)CCC(=O)O)cc1OC,10.3
15,CC(=O)Nc1cccc(NC(=O)c2c(-c3ccccc3)noc2C)c1,12.7
16,CCNC(=O)OCc1cn(-c2ccccc2)nn1,15.4
17,CCOC(=O)c1ccc(NC(=O)Cn2c(C)nc3c(sc(=S)n3CC)c2=O)cc1,9.91
18,Cc1nn(C)cc1NC(=O)CC12CC3CC(CC(C3)C1)C2,-1.57
19,C(=N\Nc1nn2cnnc2c2ccccc12)/c1ccco1,16.3
20,CC(=O)c1sc(NS(=O)(=O)c2ccc(C)cc2)nc1-c1ccccc1,14.5
21,COc1ccccc1C(=O)Nn1c(C2CCC2)nc2ccccc2c1=O,4.52
22,O=C(N/N=C/c1ccc2c(c1)OCO2)C1CC1,0.968
23,COc1ccc(CCCc2nnc(SCC(=O)Nc3ncc(C)s3)o2)cc1,3.01

row,SMILES,"hERG current change (%, negative = inhibition) at 1uM [%]"
1,CC(=O)c1ccc(N2CC(C)(C)C2=O)cc1,-0.722
2,COc1ccccc1-n1cc(C(=O)NCC(=O)N2CCN(c3ccccc3)CC2)c2ccccc2c1=O,-6.13
3,COc1ccc(CC(=O)Nc2c3c(nn2-c2cccc(C)c2C)CS(=O)C3)cc1 (stereo not drawn),1.7
4,CCn1c(SCC(=O)N2CCC(C)CC2)nc2c(c1=O)SCC2,3.75
5,CCC(Oc1ccccc1F)C(=O)NCCCn1ccnc1 (stereo not drawn),11.1
6,CCOC(=O)c1c(C)[nH]c(C(=O)CSc2nnc(-c3cccs3)n2Cc2ccccc2)c1C,15.9
7,O=C(/C=C/c1ccc(Cl)cc1Cl)N1CCN(c2ccccc2[N+](=O)[O-])CC1,-43.2
8,O=C(Cc1coc(-c2ccc(F)cc2)n1)NC1CCCCC1,15.2
9,O=C(C1=C(O)C(=O)N(Cc2ccco2)C1c1cccs1)c1cccs1 (stereo not drawn),14.4
10,O=[N+]([O-])c1ccc(N2CCCCC2)nc1N1CCCCC1,7.89
11,C/C(=N\NC(=O)c1cccc([N+](=O)[O-])c1)c1cccs1,9.15
12,O=C(COC(=O)Cc1ccccc1F)NCCc1ccccc1,2.52
13,CCN(CC)Cc1c(O)c(Cl)cc2c(C)c(C)c(=O)oc12,4.95
14,COc1ccccc1NC(=O)C1=C(C)NC2=C(C(=O)CCC2)C1c1ccc(C)o1 (stereo not drawn),7.31
15,COc1ccc(Nc2nnc(SCC3CCCCO3)s2)cc1 (stereo not drawn),10.3
16,O=C(NC1=NCCS1)c1cc(-c2ccccc2)nn1-c1ccccc1,13.9
17,COc1cc(SC)ccc1C(=O)N1CCN(c2ccccc2F)CC1,-18.2
18,Fc1ccc(CNC(=S)NCc2ccccc2)cc1,1.12
19,CS(=O)(=O)N1CCSC1c1ccc(Br)cc1 (stereo not drawn),6.83
20,COc1cc2c(=O)n(CCC(=O)NCC3CCCO3)c(=O)n(CC(=O)Nc3ccc(C)c(C)c3)c2cc1OC (stereo not drawn),11.6
21,Cc1nccc(-c2cccc(NC(=O)Nc3ccc(Cl)cc3)c2)n1,12
